Results reported in PMC4336329 (PLoS ONE, 2015).
Out of some 310,000 compounds screened, about 2,200 (0.71%) showed an effect of 50% or more. The effect is printed as a negative number. The list shows a part of the results.

The molecules below were run against human ether-à-go-go-related gene (hERG) potassium channel (human, UniProt Q12809) (assay: primary screen, population patch clamp on CHO cells stably expressing hERG).
human ether-à-go-go-related gene (hERG) potassium channel, sequence (Q12809 whole entry, looked up): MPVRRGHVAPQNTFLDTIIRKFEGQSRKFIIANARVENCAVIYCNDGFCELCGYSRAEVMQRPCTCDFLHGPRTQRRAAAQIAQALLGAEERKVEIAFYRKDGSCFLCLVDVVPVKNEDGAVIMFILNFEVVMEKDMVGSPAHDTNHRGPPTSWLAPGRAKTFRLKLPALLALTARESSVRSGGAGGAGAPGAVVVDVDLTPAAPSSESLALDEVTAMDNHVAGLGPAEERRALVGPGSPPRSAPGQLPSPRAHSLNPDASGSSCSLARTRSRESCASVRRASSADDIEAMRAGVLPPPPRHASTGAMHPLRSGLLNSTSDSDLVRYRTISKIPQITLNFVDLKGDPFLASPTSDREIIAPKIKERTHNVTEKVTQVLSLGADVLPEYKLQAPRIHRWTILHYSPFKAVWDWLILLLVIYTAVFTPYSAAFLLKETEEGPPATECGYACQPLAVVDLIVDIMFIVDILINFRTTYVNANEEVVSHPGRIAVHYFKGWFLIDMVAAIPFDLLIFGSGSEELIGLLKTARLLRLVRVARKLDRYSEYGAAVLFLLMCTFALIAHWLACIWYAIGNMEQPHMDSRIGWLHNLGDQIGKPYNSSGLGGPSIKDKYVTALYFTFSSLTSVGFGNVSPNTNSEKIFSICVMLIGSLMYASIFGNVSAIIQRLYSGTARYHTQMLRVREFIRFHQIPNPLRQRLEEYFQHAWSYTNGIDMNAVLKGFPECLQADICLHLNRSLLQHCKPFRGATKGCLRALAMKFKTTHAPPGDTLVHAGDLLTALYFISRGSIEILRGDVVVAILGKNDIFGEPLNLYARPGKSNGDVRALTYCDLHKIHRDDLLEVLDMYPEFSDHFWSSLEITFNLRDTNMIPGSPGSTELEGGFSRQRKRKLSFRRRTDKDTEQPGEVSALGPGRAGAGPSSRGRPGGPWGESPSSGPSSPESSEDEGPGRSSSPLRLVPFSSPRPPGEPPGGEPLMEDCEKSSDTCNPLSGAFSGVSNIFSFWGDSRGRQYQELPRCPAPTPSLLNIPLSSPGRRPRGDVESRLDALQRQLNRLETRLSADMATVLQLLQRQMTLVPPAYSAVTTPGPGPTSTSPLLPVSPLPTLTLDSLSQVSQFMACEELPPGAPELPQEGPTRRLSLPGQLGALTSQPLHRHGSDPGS

Row | Structure (SMILES) | hERG current change (%, negative = inhibition) at 1uM
1 | Cc1cccc(/C=N/NC(=O)c2ccc(NC(=O)c3cccc(Cl)c3)cc2)n1 | 10.4%
2 | COc1ccc(OC)c(C(C[N+](=O)[O-])c2c(C)cc3ccccn23)c1 (stereo not shown) | 10.5%
3 | Cc1ccc(C(C)C)c(OCC(O)CN2CC(C)OC(C)C2)c1.Cl (stereo not shown) | 1.47%
4 | COc1ccc2[nH]c(=O)c(CN(Cc3nnnn3CCc3ccccc3)CC3CCCO3)cc2c1 (stereo not shown) | -10.9%
5 | CN(C)CCCOC(=O)c1ccccc1Cl.Cl | 6.21%
6 | O=C(CSc1nc2[nH]ncc2c(=O)n1-c1ccccc1)NCc1cccs1 | 12.3%
7 | CCCc1c2ccccc2nc2ccccc12 | -1.03%
8 | C=C(C)c1cccc(C(C)(C)NC(=O)Nc2ccc(OC)cc2)c1 | 3.56%
9 | COc1cc(OC)cc(-n2nnnc2SCC(=O)Nc2nc3c(s2)CCCC3)c1 | 1.53%
10 | O=C(Nc1nc(-c2cccnc2)cs1)c1ccccc1Cl | 5.49%
11 | COc1ccc(/C=N/n2c(C)nc3sc(C)c(C)c3c2=O)cc1 | 16.9%
12 | COc1ccc(N=C2SC(C(N)=O)CC(=O)N2CCc2ccc(OC)c(OC)c2)cc1 (stereo not shown) | 9.57%
13 | OCC#CCSc1nnc(-c2ccncc2)o1 | 4.32%
14 | COc1ccc(CCNC(=O)CN(c2ccc(C)cc2)S(=O)(=O)c2c(C)noc2C)cc1OC | 8.22%
15 | CCOC(=O)/C(C#N)=C(\O)c1ccc(NC(=O)c2ccc([N+](=O)[O-])cc2)cc1 | 12.5%
16 | COc1ccccc1/C=C1/SC(=S)N(CCC(=O)Nc2cccnc2)C1=O | 7.75%
17 | CCCCN(CCCC)CCNC(=O)CSCc1ccc(C)cc1.O=C(O)C(=O)O | -16%
18 | O=C(Nc1ccccc1Cl)c1csc(-c2cccnc2)n1 | 8.38%
19 | COc1ccc(F)cc1C(=O)COC(=O)c1n[nH]c(=O)c2ccccc12 | 0.151%
20 | CSc1nc2ccccc2cc1/C=C(\C#N)c1cccc(Cl)c1 | 17.3%
21 | OCCNc1cc(Cl)ncn1 | 11.2%
22 | CCCCCCSc1ccc(-c2nc3ccc(C)cn3c2NC2CCCCC2)cc1.O=C(O)C(F)(F)F | 11.6%
23 | COc1ccccc1C(=O)NNC(=O)C(=O)NCc1ccccc1 | 7.74%
24 | Cc1ccc(C)c(S(=O)(=O)c2c(N)n(/N=C/c3ccco3)c3nc4ccccc4nc23)c1 | 11%
25 | CSC1=C(C#N)C(c2ccccc2)C(C(C)=O)=C(C)N1 (stereo not shown) | 10.6%
26 | COc1ccc(C2C(C(=O)c3cccs3)=C(O)C(=O)N2c2cccc(C)n2)cc1OC (stereo not shown) | -0.155%
27 | Cc1cccc(C)c1OCC(=O)N/N=C/c1cc2c(cc1[N+](=O)[O-])OCO2 | 8.05%
28 | COc1ccc(NC(=O)c2ccc(-c3nn(C)c(=O)c4ccccc34)cc2)cc1C(N)=O | 9.21%

Row | Structure (SMILES) | hERG current change (%, negative = inhibition) at 1uM
29 | COc1ccc(S(=O)(=O)N2CC(=O)Nc3ccccc32)cc1C | 14.3%
30 | CC1CCC(NC(=O)Cn2cnc3sccc3c2=O)CC1 (stereo not shown) | 3.74%
31 | O=C(CNS(=O)(=O)c1ccccc1)OCC(=O)c1ccc([N+](=O)[O-])cc1 | 10.4%
32 | Cc1c(Cl)cccc1Nc1nc(N)nc(CSC(=S)N2CCOCC2)n1 | 8.31%
33 | CCC(CC)C(=O)Nc1cccc(C(=O)NCc2ccco2)c1 | 3.84%
34 | c1ccc(CNc2ncnc3nc[nH]c23)nc1 | 7.8%
35 | COCCNC(=O)c1c[nH]c2cc(OC)c(OC)cc2c1=O | 11.9%
36 | CS(=O)(=O)N(CC(=O)N1CCCCCC1)c1cccc(F)c1 | 12.1%
37 | Cc1cccc(NC(=O)C2CCCN(S(=O)(=O)c3cccc4cccnc34)C2)c1 (stereo not shown) | -6.3%
38 | O=C(CCCn1c(SCc2ccccc2F)nc2ccccc2c1=O)NCC1CCCO1 (stereo not shown) | 8.02%
39 | COc1ccc(-c2cn[nH]c2-c2ccc(OCc3ccc(F)cc3)cc2O)cc1OC | 9.68%
40 | Cc1ccc(N2C(=O)c3ccc(C(=O)NCCN4CCOCC4)cc3C2=O)cc1 | 1.76%
41 | CCc1nc(SCC(=O)NC2CCCC2)c2oc3ccccc3c2n1 | 16.4%
42 | Cc1ccccc1NC(=S)NC(=O)c1cc(-c2ccccc2)nc2ccccc12 | 16.4%
43 | CC(=O)OCC(=O)[C@H]1CC[C@H]2[C@@H]3CCC4=CC(=O)CC[C@]4(C)[C@H]3CC[C@]12C | 5.41%
44 | COc1cccc(C(=O)NNC(=S)NC2CCCCC2)c1 | 12.7%
45 | COc1cc(CN2CCCN(C)CC2)cc([N+](=O)[O-])c1O | 12.8%
46 | CC(C)c1ccc(OCC(=O)N2CCN(C(=O)c3ccco3)CC2)cc1 | -9.83%
47 | CCOC(=O)C1=C(C(F)(F)F)Nc2ncnn2C1c1cc(OC)c(OC)cc1OC (stereo not shown) | 12.8%
48 | COC(=O)C1CN(C(=O)COc2ccc(Cl)cc2Cl)c2ccccc2O1 (stereo not shown) | 15.1%
49 | O=C1C(C=Nc2ccc(F)cc2)=C(O)c2ccccc21 | 12.2%
50 | Cc1nnc(SCC(=O)Nc2ccc(Br)cn2)[nH]c1=O | 13.7%
51 | CSc1nc(Sc2cccc(Cl)c2)c2ccccc2n1 | 14%
52 | O=C(CCCC1=NS(=O)(=O)c2ccccc2N1)N1CCN(c2ccc([N+](=O)[O-])cc2)CC1 | 12.6%
53 | O=C(Oc1coc(CSc2nnc(NC(=O)C3CC3)s2)cc1=O)c1c(F)cccc1F | 9.18%
54 | COc1ccc(OC)c(S(=O)(=O)Nc2cccc(-c3ccc(N4CCCCCC4)nn3)c2)c1 | 13.1%
55 | O=C(NC(Cc1c[nH]c2ccccc12)C(=O)O)/C(=C/c1ccco1)NC(=O)c1ccccc1 (stereo not shown) | 5.59%
